# Test results: PMC4336329 (PLoS ONE, 2015)
# In all, about 310,000 compounds went through this assay and about 14,000 (4.5%) showed an effect of 50% or more. Effects have a minus sign here. The list shows a part of the results.
# Biological target: human ether-à-go-go-related gene (hERG) potassium channel (human, UniProt Q12809)
# Assay: primary screen, population patch clamp on CHO cells stably expressing hERG
# 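Note: peak tail current of the secondary pulse compared with the same well before compound.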
# Chain of human ether-à-go-go-related gene (hERG) potassium channel (Q12809 whole entry, looked up): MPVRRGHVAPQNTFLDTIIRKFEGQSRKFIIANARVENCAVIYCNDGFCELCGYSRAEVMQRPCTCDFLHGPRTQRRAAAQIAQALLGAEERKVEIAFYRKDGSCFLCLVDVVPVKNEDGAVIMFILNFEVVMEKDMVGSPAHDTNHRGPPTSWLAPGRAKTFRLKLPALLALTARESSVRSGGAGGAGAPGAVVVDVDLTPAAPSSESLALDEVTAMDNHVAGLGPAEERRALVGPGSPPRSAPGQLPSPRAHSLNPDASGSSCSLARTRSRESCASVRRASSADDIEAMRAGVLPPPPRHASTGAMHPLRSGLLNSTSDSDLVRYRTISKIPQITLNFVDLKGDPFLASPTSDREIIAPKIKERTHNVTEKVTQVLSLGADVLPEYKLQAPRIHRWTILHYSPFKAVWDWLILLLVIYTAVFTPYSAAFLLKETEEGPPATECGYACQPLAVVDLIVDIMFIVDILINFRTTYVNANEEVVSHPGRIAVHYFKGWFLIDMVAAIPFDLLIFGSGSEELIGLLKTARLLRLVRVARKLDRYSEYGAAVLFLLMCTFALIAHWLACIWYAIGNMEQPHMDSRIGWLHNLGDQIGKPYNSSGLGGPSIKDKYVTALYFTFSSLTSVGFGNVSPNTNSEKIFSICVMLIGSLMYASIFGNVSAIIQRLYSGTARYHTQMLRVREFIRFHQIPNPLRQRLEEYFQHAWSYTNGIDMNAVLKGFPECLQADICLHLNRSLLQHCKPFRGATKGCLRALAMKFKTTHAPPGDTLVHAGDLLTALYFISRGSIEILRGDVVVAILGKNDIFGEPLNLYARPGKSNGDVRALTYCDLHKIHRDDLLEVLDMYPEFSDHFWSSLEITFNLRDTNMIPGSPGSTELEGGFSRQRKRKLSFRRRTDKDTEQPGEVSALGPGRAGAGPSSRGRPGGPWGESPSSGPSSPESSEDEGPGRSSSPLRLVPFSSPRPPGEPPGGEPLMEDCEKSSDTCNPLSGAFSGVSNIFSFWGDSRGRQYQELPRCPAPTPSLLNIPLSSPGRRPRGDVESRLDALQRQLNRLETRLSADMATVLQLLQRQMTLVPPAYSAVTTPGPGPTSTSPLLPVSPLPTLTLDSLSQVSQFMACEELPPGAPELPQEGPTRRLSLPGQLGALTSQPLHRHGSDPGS
row,Structure (SMILES),"hERG current change (%, negative = inhibition) at 10uM [%]"
1,COc1ccc(CNc2nc3ccccc3n2CCN2CCCCC2)c(OC)c1,-84.4
2,CC(C)Cn1c(N)c(C(=O)COC(=O)C2Cc3ccccc3CN2S(C)(=O)=O)c(=O)n(C)c1=O (stereo not drawn),-17.5
3,CCc1ccc(S(=O)(=O)NC(=S)Nc2ccccc2)cc1,10
4,CCOC(=O)CN(Cc1sccc1C)C(=O)Nc1ccc(OC)cc1OC,11.9
5,Cc1ccc2cc3c(N)c(C(=O)N4CCOCC4)sc3nc2c1,-5.21
6,O=C(c1cccc(S(=O)(=O)N2CCc3ccccc3C2)c1)N1CCN(c2ccc(O)cc2)CC1,-22.1
7,O=C(Oc1ccccc1C(=O)N1CCOCC1)c1ccccc1,4.13
8,C#Cc1ccc([C@@H]2C=C(C(=O)N3CCN(Cc4ccccc4)CC3)O[C@H](OCC)[C@H]2CCCO)cc1,-17.2
9,c1ccc(Nc2ncnc3c2oc2ccccc23)cc1,2.86
10,O=[N+]([O-])c1ccc(N2CCOCC2)c2cccnc12,-25
11,Cc1ccc(N(CCC#N)C(=O)CCl)cc1C,13.6
12,COc1cc(/C=C/C(=O)O)cc2c1OCCO2,20.7
13,CCN(Cc1ccccc1)C(=O)c1cc(COc2c(F)cccc2F)on1,3.85
14,Cn1cc(/C=N\NC(=O)C2COc3ccccc3O2)c2ccccc21 (stereo not drawn),9.62
15,Cc1cccnc1NC(=O)Cn1nc(C)c([N+](=O)[O-])c1C,9.28
16,O=C(NCC(c1cccnc1)N1CCN(c2ccccc2)CC1)Oc1ccccc1 (stereo not drawn),-19.2
17,NS(=O)(=O)c1ccc(Nc2nc(-c3ccc(O)cc3O)cs2)cc1,-9.04
18,N#CCn1c(CCl)nc2ccccc2c1=O,23.6
19,CC(=O)OCCSc1c(-c2ccccc2)c2cc(Cl)ccc2[nH]c1=O,-4.37

row,Structure (SMILES),"hERG current change (%, negative = inhibition) at 10uM [%]"
1,CN(C)C(=S)NC(=O)c1cccc(Cl)c1,27.3
2,O=C(/C=C/c1ccccc1Cl)NC1CCS(=O)(=O)C1 (stereo not drawn),6.38
3,Cc1cc(-n2c(=S)sc3c(=O)n(-c4ccc(F)cc4)c(SCC(=O)O)nc32)ccc1Cl,28.8
4,Nc1ccccc1C(=O)NCc1ccccc1,7.95
5,CC(OC(=O)c1cnc2ccccc2n1)c1ccccc1Cl (stereo not drawn),3.11
6,CN1C(=O)C(=Cc2ccccc2OS(=O)(=O)c2ccccc2)C(=O)N(C)C1=O,8.72
7,O=C(Nc1csc(Cc2c(Cl)cccc2Cl)n1)NN1CCOCC1,0.272
8,O=C(Nc1cc([N+](=O)[O-])ccc1C(=O)Nc1cccnc1)c1ccccc1,1.51
9,CC(=O)Nc1cccc(NC(=O)CCCC(=O)O)c1,15.7
10,O=C(/C=C/c1cn(-c2ccccc2)nc1-c1ccccc1)Nc1ccc(C(=O)O)cc1,14.2
11,N=C1S/C(=C\c2cccc3ccccc23)C(=O)N1c1ccc(F)cc1,14
12,COc1ccc(C(NC(=O)C(C)(C)C)NC(=O)C(C)(C)C)cc1,13.6
13,CC(CC(=O)c1cccs1)CC(=O)c1cccs1,-4.16
14,COc1cc(SC)ccc1C(=O)Nc1cccc(S(=O)(=O)NC2=NCCC2)c1,-2.48
15,CCN(CC)S(=O)(=O)c1ccc(/C=C/C(=O)Nc2ccc(Br)cc2F)cc1,-6.08
16,CCOC(=O)c1[nH]c2ccc(F)cc2c1NC(=O)CN1CCN(C/C=C/c2ccccc2)CC1,-80.7
17,O=C(Nc1ccc(C(=O)N2CCOCC2)cc1)c1ccccc1[N+](=O)[O-],24
18,COCCNC(=O)COC(=O)c1cc(-c2ccc(OC)cc2)nc2ccccc12,6.35
19,Cc1cc(C)c(S(=O)(=O)Cc2ccccc2)c(=O)[nH]1,4.47

row,Structure (SMILES),"hERG current change (%, negative = inhibition) at 10uM [%]"
1,CN(C)C=Nc1ccc2nc3c(cc2c1)[nH]c1ccccc13,1.72
2,COC(=O)CNC(=O)COC(=O)/C=C/c1ccc2ccccc2n1,-7.5
3,COc1ccc(CN2C(=O)Cc3c2nc(N)c2c(N)nc(N4CCOCC4)c(C#N)c32)cc1,-36.8
4,CCOc1ccccc1CNS(=O)(=O)c1cc(-c2cc(C)no2)ccc1C,-19
5,COc1ccc(-c2nc(C#N)c(NC(C)C)o2)cc1,13.6
6,CC(C)(C)OC(=O)C1C(=O)CC(C)(O)C(C(=O)OC(C)(C)C)C1c1ccco1 (stereo not drawn),-9.35
7,CCN(c1ccccc1)S(=O)(=O)c1cc(C(=O)O)ccc1C,-5.27
8,Cc1nc(Cl)c2c(n1)NC1=C(O2)C(=O)CCC1,14.7
9,CSCCC1NC(=S)N(Cc2ccccc2)C1=O (stereo not drawn),16.3
10,CCOC(=O)c1sc(=NC(=O)COc2ccc(Cl)cc2)n(C)c1C,3.44
11,COc1ccccc1OCCSc1nnnn1C1CCCCC1,-17.8
12,CSc1n[nH]c(=O)n1-c1ccc(Cl)cc1,2.74
13,CC(C)OCCCNC(=O)c1cccc(NC(=O)c2ccccc2)c1,-5.08
14,O=C1OC(c2ccccc2)=N/C1=C/c1cccc(OC(=O)c2cccs2)c1,7.27
15,CN(C)c1ccc(/C=N/N=C2/SC(CC(=O)O)C(=O)N2c2ccc(O)cc2)cc1 (stereo not drawn),8.53
16,Oc1ccc(-n2nnnc2SCc2ccccc2Br)cc1,0.923
17,CC12CN3CC(C)(CN(C1)C3c1cccs1)C2O (stereo not drawn),-8.02
18,O=C(O)C1C2CC3CC(C2)CC1(n1ncc(N2CCC4(CC2)OCCO4)c(Cl)c1=O)C3 (stereo not drawn),0.177
19,Cc1cc(S(=O)(=O)Nc2ccc(C(=O)NCc3ccncc3)cc2)ccc1F,5.95
